In the supplement of paper PMC9446081:
Screen size: about 39,000 compounds; about 220 (0.56%) showed activity. The list shows a part of the results.

Test system: Escherichia coli K-12 BW25113
Assay: relative growth (OD600 normalised to plate interquartile mean) (fraction); higher = less growth inhibition, active = 0.2 or less
Details: 50 µM; LB; incubation time: overnight (16-24 h)
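Also: static incubation at 37 °C against the wild-type strain, values averaged over two biological replicates.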

| Compound | relative growth |
| --- | --- |
| C[C@H]1CN([C@@H](C)CO)C(=O)CCCn2nncc2CO[C@H]1CN(C)S(=O)(=O)c1ccc2c(c1)OCCCO2 | inactive: 0.999 |
| OC[C@H]1O[C@H](OC[C@H]2O[C@@H](O)[C@H](O)[C@@H](O)[C@@H]2O)[C@H](O)[C@@H](O)[C@@H]1O | inactive: 1.04 |
| Cc1noc(C)c1NC(=O)Nc1cccc2c1O[C@H](CN(C)Cc1ccc(C(=O)Nc3ccccc3N)cc1)[C@@H](C)CN([C@@H](C)CO)C2=O | inactive: 0.969 |
| CO[C@@H]1[C@H](O[P@@](=O)(S)OC[C@H]2O[C@@H](n3cnc4c(N)ncnc43)C[C@@H]2O)[C@@H](CO)O[C@H]1n1ccc(=O)[nH]c1=O | inactive: 0.98 |
| CC1=CC2C(CC1=O)C2(C)C (stereo not drawn) | inactive: 0.852 |
| Cc1noc(C)c1NC(=O)N(C)C[C@H]1Oc2c(NS(=O)(=O)c3ccccc3)cccc2C(=O)N([C@H](C)CO)C[C@@H]1C | inactive: 0.96 |
| CN(C)CC#Cc1ccc([C@@H]2[C@H]3CN(C(=O)c4cccnc4)CC(=O)N3[C@H]2CO)cc1 | inactive: 0.994 |
| C[C@@H]1CN([C@H](C)CO)C(=O)c2cc(NC(=O)NC3CCCCC3)ccc2O[C@@H](C)CCCCO[C@H]1CN(C)C(=O)c1ccncc1 | inactive: 0.991 |
| C[C@@H]1CN([C@@H](C)CO)C(=O)c2cc(NS(=O)(=O)c3ccc(F)cc3)ccc2O[C@@H](C)CCCCO[C@@H]1CN(C)Cc1ccccc1 | inactive: 0.948 |
| O=C(C[C@H]1C=C[C@@H](NS(=O)(=O)c2ccccc2F)[C@H](CO)O1)NCCCN1CCOCC1 | inactive: 1 |
| C[C@H]1CN([C@@H](C)CO)C(=O)c2cc(C#CC3CCCCC3)cnc2O[C@H]1CN(C)C(=O)c1ccncc1 | inactive: 0.995 |
| Cc1[nH]c2ncnn2c(=O)c1NS(C)(=O)=O | inactive: 0.986 |
| COc1ccc(NC(=O)N(C)C[C@H]2OCCCC[C@H](C)Oc3ccc(NS(=O)(=O)c4ccc(F)cc4)cc3C(=O)N([C@H](C)CO)C[C@@H]2C)cc1 | inactive: 1 |
| COc1ccnc(N)c1 | inactive: 0.989 |
| COc1ccccc1-c1cnc2c(c1)C(=O)N([C@@H](C)CO)C[C@@H](C)[C@@H](CN(C)C(=O)c1ccncc1)O2 | inactive: 1.03 |
| Cc1noc(C)c1S(=O)(=O)N(C)C[C@@H]1OCCCC[C@@H](C)Oc2ccc(N(C)C)cc2C(=O)N([C@@H](C)CO)C[C@@H]1C | inactive: 1.04 |
| CC(C)(C)S(=O)N1Cc2cc(C(=O)NCc3ccc(Oc4ccccc4)cc3)nc(-c3cccc(-c4cccc(F)c4)c3)c2[C@@H]1CCO (stereo partly drawn) | inactive: 1.01 |
| C[C@@H]1CN([C@@H](C)CO)C(=O)c2c(c3ccccc3n2C)-c2ccccc2CO[C@H]1CN(C)Cc1cccc2c1OCCCO2 | inactive: 1.01 |
| C[C@@H]1CN([C@H](C)CO)C(=O)c2cccc(NC(=O)c3ccc(-c4nccs4)cc3)c2O[C@H]1CN(C)Cc1ccccc1 | inactive: 1.01 |
| C[C@@H]1CN([C@@H](C)CO)C(=O)c2ccccc2-c2ccccc2CO[C@H]1CN(C)C(=O)Nc1cccc(C(F)(F)F)c1 | inactive: 1 |
| O=C1[N-]C(=O)C(c2ccccc2)(c2ccccc2)N1.[Na+] | inactive: 1.07 |

| Compound | relative growth |
| --- | --- |
| CCS(=O)(=O)Nc1ccc2c(c1)C(=O)N(C)[C@@H]1CC[C@@H](CC(=O)NCCCN3CCOCC3)O[C@H]1CO2 | inactive: 0.991 |
| CC(C)=C[C@H]1[C@@H](c2nc3cc(Br)ccc3o2)C1(C)C | inactive: 1 |
| CC(C)NC(=O)NCC[C@@H]1CC[C@H](NC(=O)CN(C)C)[C@@H](CO)O1 | inactive: 0.966 |
| O=C(N[C@@H](c1ccccc1)c1ccc2ccccc2n1)C1CCN(Cc2ccc(Cl)c(Cl)c2)CC1 | inactive: 1.01 |
| O=C1NC(=O)C2(CCCC2)N1 | inactive: 1.01 |
| C[C@@H]1CN([C@@H](C)CO)C(=O)c2cc(NC(=O)c3ccccc3)ccc2O[C@@H](C)CCCCO[C@@H]1CN(C)Cc1ccc(C(=O)O)cc1 | inactive: 1 |
| CO[C@@H]1CN(C)C(=O)c2cc(NC(=O)c3ccc(Oc4ccccc4)cc3)ccc2OC[C@@H](C)N(C(C)=O)C[C@H]1C | inactive: 0.993 |
| CCCNC(=O)C[C@H]1CC[C@@H]2[C@H](COc3ccc(NS(=O)(=O)c4ccccc4C)cc3C(=O)N2C)O1 | inactive: 1.01 |
| C[C@@H]1CN([C@H](C)CO)C(=O)c2cccc(NC(=O)NC3CCCCC3)c2O[C@@H]1CN(C)Cc1ccc(Oc2ccccc2)cc1 | inactive: 1.03 |
| Cc1ccc(S(=O)(=O)N(C)C[C@@H]2OCCCC[C@@H](C)Oc3ccc(NC(=O)Nc4ccc5c(c4)OCO5)cc3C(=O)N([C@@H](C)CO)C[C@@H]2C)cc1 | inactive: 1.04 |
| CCOC(=O)C(CCc1ccccc1)NC(C)C(=O)N1Cc2cc(OC)c(OC)cc2CC1C(=O)O.Cl (stereo not drawn) | inactive: 0.851 |
| C[C@@H]1CN([C@H](C)CO)C(=O)Cc2cc(NC(=O)CCCCCC(=O)Nc3ccccc3N)ccc2O[C@H]1CN(C)Cc1ccc(-c2ccccc2)cc1 | inactive: 0.974 |
| C[C@@H]1CCCCO[C@H](CN(C)C(=O)Nc2cccc3ccccc23)[C@@H](C)CN([C@@H](C)CO)C(=O)c2cc(NC(=O)c3ccncc3)ccc2O1 | inactive: 0.995 |
| CC1CCCC(C)N1 (stereo not drawn) | inactive: 1.11 |
| C[C@@H]1CN([C@H](C)CO)C(=O)c2cc(C#Cc3ccncc3)cnc2O[C@H]1CN(C)S(=O)(=O)c1ccccc1F | inactive: 0.993 |
| COc1ccc(NC(=O)N(C)C[C@H]2Oc3c(NS(C)(=O)=O)cccc3C(=O)N([C@H](C)CO)C[C@@H]2C)cc1 | inactive: 0.987 |
| C[C@H](CO)N1C[C@H](C)[C@@H](CN(C)Cc2ccc3c(c2)OCO3)OCCCC[C@H](C)Oc2ccc(NC(=O)c3ccccc3)cc2C1=O | inactive: 1.01 |
| CC1=C(C(=O)O)N2C(=O)[C@@H](NC(=O)[C@H](N)c3ccc(O)cc3)[C@H]2SC1 | inactive: 1.06 |
| COCCCOc1cc(C[C@@H](C[C@H](N)[C@@H](O)C[C@H](C(=O)NCC(C)(C)C(N)=O)C(C)C)C(C)C)ccc1OC | inactive: 1.03 |
| O=C(N[C@H]1CC[C@@H](CCNS(=O)(=O)c2ccccc2)O[C@@H]1CO)c1cnccn1 | inactive: 0.943 |
| C[C@H](CO)N1C[C@H](C)[C@@H](CN(C)Cc2ccc(C(=O)Nc3ccccc3N)cc2)Oc2ccc(NC(=O)Cc3cn(C)c4ccccc34)cc2CC1=O | inactive: 0.974 |

| Compound | relative growth |
| --- | --- |
| C[C@@H]1CCCCO[C@H](CN(C)S(=O)(=O)c2ccccc2)[C@@H](C)CN([C@H](C)CO)C(=O)c2cc(NC(=O)c3ccccc3)ccc2O1 | inactive: 0.979 |
| C[C@H]1CN([C@@H](C)CO)S(=O)(=O)c2ccc(-c3cccnc3)cc2O[C@H]1CN(C)C(=O)NC1CCCCC1 | inactive: 1.01 |
| Cc1noc(C)c1NC(=O)Nc1ccc2c(c1)C(=O)N([C@H](C)CO)C[C@H](C)[C@@H](CN(C)S(=O)(=O)c1ccc(Cl)cc1)OCCCC[C@@H](C)O2 | inactive: 0.997 |
| C[C@@H]1CCCCO[C@H](CN(C)C(=O)C2CCCCC2)[C@@H](C)CN([C@H](C)CO)C(=O)c2cc(NC(=O)c3ccncc3)ccc2O1 | inactive: 0.995 |
| C[C@@H]1CN([C@H](C)CO)C(=O)c2cc(NC(=O)Nc3ccc4c(c3)OCO4)ccc2O[C@H]1CN(C)C(=O)Nc1ccc(C(F)(F)F)cc1 | inactive: 0.992 |
| CS(=O)(=O)N1CCn2cc(Cn3cccn3)nc2C1 | inactive: 0.999 |
| O=C(O)[C@H]1/C(=C/CO)O[C@@H]2CC(=O)N21 | inactive: 0.969 |
| Cc1noc(C)c1S(=O)(=O)Nc1ccc2c(c1)C(=O)N([C@@H](C)CO)C[C@@H](C)[C@H](CN(C)CC1CC1)O2 | inactive: 0.997 |
| C[C@H]1CN([C@@H](C)CO)C(=O)Cc2cc(NC(=O)Nc3ccccc3)ccc2O[C@H]1CN(C)Cc1ccc(Oc2ccccc2)cc1 | inactive: 1.01 |
| O=C1COC[C@@H](c2ccccc2)N1 | inactive: 1.01 |
| C[C@@H]1CN([C@H](C)CO)C(=O)c2c(c3ccccc3n2C)-c2ccccc2CO[C@H]1CN(C)Cc1ccc2c(c1)OCO2 | inactive: 0.967 |
| Cl.Cl.OCCOCCN1CCN(C(c2ccccc2)c2ccc(Cl)cc2)CC1 (stereo not drawn) | inactive: 1 |
| COc1ccc(NC(=O)N(C)C[C@@H]2OCCCC[C@H](C)Oc3ccc(NC(=O)c4ccccc4)cc3C(=O)N([C@H](C)CO)C[C@H]2C)cc1 | inactive: 0.986 |
| COc1cccc(-c2cccc(-c3nc(C(=O)N[C@@H]4CCN(Cc5ccccc5)C4)cc4c3[C@H](CCO)N(S(=O)C(C)(C)C)C4)c2)c1 (stereo partly drawn) | inactive: 0.983 |
| C[C@@H]1CCCCO[C@H](CN(C)S(=O)(=O)c2cn(C)cn2)[C@@H](C)CN([C@@H](C)CO)C(=O)c2cc(NC(=O)Nc3ccc(C(F)(F)F)cc3)ccc2O1 | inactive: 1.01 |
| COc1cc(C)nc(SCC(N)=O)n1 | inactive: 0.996 |
| c1ccc(-n2ncc3c2ncn2nnnc32)cc1 | inactive: 0.996 |
| COc1ccc(S(=O)(=O)N(C)C[C@H]2OCc3cn(nn3)CCCC(=O)N([C@H](C)CO)C[C@@H]2C)cc1 | inactive: 1.02 |
| C[C@@H]1CCCCO[C@@H](CN(C)Cc2ccc(C(F)(F)F)cc2)[C@@H](C)CN([C@H](C)CO)C(=O)c2cc(NC(=O)Nc3cccc4ccccc34)ccc2O1 | inactive: 1.02 |
| COc1ccc(NC(=O)Nc2ccc3c(c2)C(=O)N([C@@H](C)CO)C[C@@H](C)[C@@H](CN(C)S(=O)(=O)c2ccc(C)cc2)OCCCC[C@@H](C)O3)cc1 | inactive: 1.03 |
| C[C@@H]1CN([C@@H](C)CO)C(=O)c2cccc(NS(C)(=O)=O)c2O[C@H]1CN(C)S(=O)(=O)c1ccccc1 | inactive: 1.01 |
